The values that follow come from paper PMC4336329 (PLoS ONE, 2015).

Screen size: about 310,000 compounds; about 2,200 (0.71%) showed an effect of 50% or more. The effect is printed as a negative number. The list shows a part of the results.

The target in the assay is human ether-à-go-go-related gene (hERG) potassium channel (human, UniProt Q12809). The assay is described as follows: primary screen, population patch clamp on CHO cells stably expressing hERG.
Chain of human ether-à-go-go-related gene (hERG) potassium channel (Q12809 whole entry, looked up): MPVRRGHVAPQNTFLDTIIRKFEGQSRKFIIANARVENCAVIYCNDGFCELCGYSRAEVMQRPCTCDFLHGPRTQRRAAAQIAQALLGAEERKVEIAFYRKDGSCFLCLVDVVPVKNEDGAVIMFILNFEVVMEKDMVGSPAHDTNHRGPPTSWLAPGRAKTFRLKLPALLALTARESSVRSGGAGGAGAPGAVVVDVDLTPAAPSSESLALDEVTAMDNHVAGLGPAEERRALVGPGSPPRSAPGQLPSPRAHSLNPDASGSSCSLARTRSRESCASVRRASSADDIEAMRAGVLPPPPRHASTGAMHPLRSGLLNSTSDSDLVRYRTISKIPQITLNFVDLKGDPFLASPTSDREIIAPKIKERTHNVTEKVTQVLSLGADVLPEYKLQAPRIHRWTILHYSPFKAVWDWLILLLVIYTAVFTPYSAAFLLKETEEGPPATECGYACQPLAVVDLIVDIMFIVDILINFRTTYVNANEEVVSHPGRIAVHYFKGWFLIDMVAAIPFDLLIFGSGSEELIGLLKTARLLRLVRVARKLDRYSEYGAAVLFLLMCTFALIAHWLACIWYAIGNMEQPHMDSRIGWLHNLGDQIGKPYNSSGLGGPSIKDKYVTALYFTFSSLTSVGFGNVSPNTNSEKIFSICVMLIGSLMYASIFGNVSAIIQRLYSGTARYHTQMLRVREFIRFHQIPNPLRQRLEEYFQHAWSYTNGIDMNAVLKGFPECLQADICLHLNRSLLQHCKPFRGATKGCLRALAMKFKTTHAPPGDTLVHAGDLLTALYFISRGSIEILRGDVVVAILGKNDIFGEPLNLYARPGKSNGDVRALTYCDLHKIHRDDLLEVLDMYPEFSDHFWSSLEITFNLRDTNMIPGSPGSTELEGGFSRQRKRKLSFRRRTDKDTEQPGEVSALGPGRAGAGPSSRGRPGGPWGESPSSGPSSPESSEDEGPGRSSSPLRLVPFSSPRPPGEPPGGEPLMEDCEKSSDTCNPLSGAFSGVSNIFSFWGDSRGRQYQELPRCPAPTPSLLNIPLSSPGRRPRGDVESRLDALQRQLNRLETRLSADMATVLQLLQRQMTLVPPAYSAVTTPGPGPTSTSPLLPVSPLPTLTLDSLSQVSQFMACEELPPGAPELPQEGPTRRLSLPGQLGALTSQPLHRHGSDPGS
On to `CC1CCN(Cc2c(C(=O)N/N=C/c3ccc(OC(C)C)cc3)nnn2-c2nonc2N)CC1`, for which the “hERG current change (%, negative = inhibition) at 1uM” value was 6.27%.

Take `COCCNC(=O)c1cccc(NS(=O)(=O)c2cccc3cccnc23)c1`: the “hERG current change (%, negative = inhibition) at 1uM” value amounted to 15.1%.

For `C=CCn1c(SCC(=O)NC2CC2)nnc1C1CC1`, the “hERG current change (%, negative = inhibition) at 1uM” value was 17.2%.

Take `COc1ccccc1NC(=O)c1c(Br)cnn1C`: the “hERG current change (%, negative = inhibition) at 1uM” value came to 8.12%.

With `CCOc1ccccc1N1CCN(CC(=O)NC(=O)NCc2ccco2)CC1`, the “hERG current change (%, negative = inhibition) at 1uM” value was 2.54%.

For the molecule `CCC(=O)c1cccc2c1N=CC1=C(CC(C)(C)CC1=O)N2`, the “hERG current change (%, negative = inhibition) at 1uM” value worked out at 13%.

Consider `Cc1cc(C)n(-c2cc(Cl)ccc2[N+](=O)[O-])n1`, for which the “hERG current change (%, negative = inhibition) at 1uM” value was found to be 9.86%.

For the molecule `COC(=O)C1=C(c2ccc(OC(F)(F)F)cc2)C[C@@H]2CC[C@H]1N2C(=O)NCCOc1ccc(OC)cc1`, the “hERG current change (%, negative = inhibition) at 1uM” value came out at 1.23%.

Turning to `O=C(NCC(=O)N(c1cccnc1)C(C(=O)NC1CCCC1)c1ccccc1)c1ccco1` (stereo not drawn), the “hERG current change (%, negative = inhibition) at 1uM” value turned out to be 4.96%.

As for `CC(C)(C)OC(=O)N[C@@H](Cc1ccccc1)[C@H](O)c1ccco1`, the “hERG current change (%, negative = inhibition) at 1uM” value worked out at 9.47%.

As to `CCOc1ccccc1N(CC(=O)N1CCCCCC1)S(C)(=O)=O`, the “hERG current change (%, negative = inhibition) at 1uM” value was 12.3%.

As for `CCCS(=O)(=O)Nc1cccc(-c2cn3c(n2)SCC3)c1`, the “hERG current change (%, negative = inhibition) at 1uM” value was found to be 9.3%.

As to `O=C(/C=C/c1cccc([N+](=O)[O-])c1)NCc1ccc2c(c1)OCO2`, the “hERG current change (%, negative = inhibition) at 1uM” value was determined as 6.47%.

As to `COc1ccc2c(c1)CC/C(=C/c1ccncc1)C2=O`, the “hERG current change (%, negative = inhibition) at 1uM” value was -5.62%.

Take `Cc1ccc(NC(=S)Nc2ccc(C(C)C)cc2)cc1S(=O)(=O)N1CCCCCC1`: the “hERG current change (%, negative = inhibition) at 1uM” value is on record as 4.75%.

Consider `COc1cccc(NC(=O)CCc2nnc3ccc(NCc4ccco4)nn23)c1`, for which the “hERG current change (%, negative = inhibition) at 1uM” value is reported as 12.4%.

Regarding `Cc1ccn2c(=O)nc(SCC(=O)c3ccc(Cl)cc3)nc2c1`, the “hERG current change (%, negative = inhibition) at 1uM” value was -2.65%.

Take `CC(C)(C)CC(=O)Nc1cccc2c1CCCC2`: the “hERG current change (%, negative = inhibition) at 1uM” value is -0.305%.

Consider `C=C(C)Cn1c(CCCNC(=O)CC)nc2ccccc21`, for which the “hERG current change (%, negative = inhibition) at 1uM” value came to 4.91%.

With `CC(C)(C)c1nnc(NC(=O)CCS(=O)(=O)c2ccccc2)s1`, the “hERG current change (%, negative = inhibition) at 1uM” value is reported as 10.1%.

Turning to `COc1ccc2c3c(cccc13)OCC2=O`, the “hERG current change (%, negative = inhibition) at 1uM” value was 0.436%.

Take `CCOC(=O)[C@H]1[C@H]2COc3ccccc3[C@@H]2N2C(=O)c3cc(C)ccc3NC(=O)[C@@]12C`: the “hERG current change (%, negative = inhibition) at 1uM” value was determined as 12.4%.

On to `CN(CC(=O)Nc1cccc(F)c1)C(=O)c1cc(-c2ccco2)nc2ccccc12`, for which the “hERG current change (%, negative = inhibition) at 1uM” value is reported as -2.41%.

For the molecule `CC(=O)c1ccc(N2CCN(C(=O)C3CCC3)CC2)cc1`, the “hERG current change (%, negative = inhibition) at 1uM” value is on record as -7.31%.

Consider `COc1cccc(NC(=O)CN(C)C(=O)c2cn(-c3ccccc3)nc2-c2cccs2)c1`, for which the “hERG current change (%, negative = inhibition) at 1uM” value is -10.7%.

For `CCOC(=O)C1=C(O)/C(=C/c2cc(C)n(-c3ccccc3)c2C)N=C1C`, the “hERG current change (%, negative = inhibition) at 1uM” value is 8.12%.

Turning to `O=C(OC1CCOC1=O)c1cccc(S(=O)(=O)N2CCc3ccccc3C2)c1` (stereo not drawn), the “hERG current change (%, negative = inhibition) at 1uM” value was determined as 0.462%.

For `COC(=O)c1sccc1NC(=O)c1ccc(Br)o1`, the “hERG current change (%, negative = inhibition) at 1uM” value is recorded as 8.28%.

On to `Cc1cc(C)nc(NS(=O)(=O)c2ccc(NC(=O)CCN3C(=O)c4ccccc4C3=O)cc2)n1`, for which the “hERG current change (%, negative = inhibition) at 1uM” value is on record as 7.12%.

For `COC(=O)c1cc(CSC(=N)N)ccc1OCCC(C)C.Cl`, the “hERG current change (%, negative = inhibition) at 1uM” value is given as 14.9%.

With `Cc1cc(C)n2nc(SCc3nnc(-c4ccc(F)cc4)o3)nc2n1`, the “hERG current change (%, negative = inhibition) at 1uM” value is reported as -9.79%.

In the case of `CNC(=O)c1ccsc1NC(=O)CCS(=O)(=O)c1ccccc1`, the “hERG current change (%, negative = inhibition) at 1uM” value amounted to 15.6%.

For the molecule `O=C(N/N=C/c1cccc([N+](=O)[O-])c1)c1cccc2cc[nH]c12`, the “hERG current change (%, negative = inhibition) at 1uM” value amounted to 17.3%.

`Cc1ccc(-c2nnc(Nc3ccccc3)o2)cc1`: the “hERG current change (%, negative = inhibition) at 1uM” value came out at 5.78%.

On to `CCc1ccc(OCC(=O)NNC(=O)c2c(CC)noc2C)cc1`, for which the “hERG current change (%, negative = inhibition) at 1uM” value was found to be 18.9%.

`COc1ccc2oc(C(=O)OCC(=O)NC3CC3)c(C)c2c1`: the “hERG current change (%, negative = inhibition) at 1uM” value is recorded as 13%.

For `Cc1ccc(-n2c(C)cc(/C=N/NC(=O)c3ccc(CN4CCOCC4)cc3)c2C)cc1`, the “hERG current change (%, negative = inhibition) at 1uM” value came out at 2.56%.

Turning to `COc1cc(C(=O)NC2Cc3ccccc3C2)ccc1OC1CCN(C(C)=O)CC1`, the “hERG current change (%, negative = inhibition) at 1uM” value came out at 9.82%.

As to `CCCOc1ccc(C(C)=O)cc1Cc1c(O)[nH]c(=S)[nH]c1=O`, the “hERG current change (%, negative = inhibition) at 1uM” value is listed as 16.1%.

Turning to `O=C(Cc1cccs1)Nc1nnc(-c2ccncc2)s1`, the “hERG current change (%, negative = inhibition) at 1uM” value was -0.792%.

As for `Cc1cccc(N2C(=O)C3C4C=CC(CC4)C3C2=O)c1` (stereo not drawn), the “hERG current change (%, negative = inhibition) at 1uM” value turned out to be 11.6%.

For `Cc1ccc(-n2cc(CN3CCNC(=O)CC3)c(-c3ccc(F)cc3)n2)cc1`, the “hERG current change (%, negative = inhibition) at 1uM” value was -3.41%.

On to `COc1ccc2nc(NC3=NCCC3)sc2c1`, for which the “hERG current change (%, negative = inhibition) at 1uM” value was -0.226%.

Regarding `COCCN(C(=O)c1csnn1)C(C(=O)NC1CCCC1)c1ccccc1F` (stereo not drawn), the “hERG current change (%, negative = inhibition) at 1uM” value came out at 12.6%.

On to `CCN(c1ccccc1)S(=O)(=O)c1cccc(C(=O)NCC(c2ccco2)N2CCCC2)c1` (stereo not drawn), for which the “hERG current change (%, negative = inhibition) at 1uM” value was -18.1%.

Turning to `COc1cc2cc(CN(CCc3cccc(C)c3)C(=S)NCCCN3CCOCC3)c(=O)[nH]c2cc1OC`, the “hERG current change (%, negative = inhibition) at 1uM” value is given as 5.22%.

In the case of `NS(=O)(=O)c1ccc(NC(=S)N2CCC(O)CC2)cc1`, the “hERG current change (%, negative = inhibition) at 1uM” value was 9.49%.

On to `COc1cc(CNc2ccc3[nH]c(=O)[nH]c3c2)cc(Br)c1OCC(=O)NC(C)(C)C`, for which the “hERG current change (%, negative = inhibition) at 1uM” value is 8.57%.

As to `CCc1ccc(N(CC(=O)NC(C)(C)CC)C(=O)CCC(=O)Nc2nccs2)cc1`, the “hERG current change (%, negative = inhibition) at 1uM” value was found to be 2.74%.

On to `O=C1c2ccccc2C(=O)N1CC(O)CNc1ccc(Br)cc1` (stereo not drawn), for which the “hERG current change (%, negative = inhibition) at 1uM” value is 5.22%.

Turning to `CCN(CC)S(=O)(=O)c1cc(C(=O)Nc2ccccc2[N+](=O)[O-])ccc1Cl`, the “hERG current change (%, negative = inhibition) at 1uM” value is -4.53%.

In the case of `O=C(C1CCC1)N1CCc2cc(S(=O)(=O)NCc3ccccn3)ccc21`, the “hERG current change (%, negative = inhibition) at 1uM” value amounted to 11.1%.

As for `Nc1nnnn1/N=C/c1ccccc1OCc1ccccc1`, the “hERG current change (%, negative = inhibition) at 1uM” value is 12.8%.

`O=C(c1ccc(Cl)nc1)c1cccs1`: the “hERG current change (%, negative = inhibition) at 1uM” value came out at 16.5%.

In the case of `Cc1cc(/C=N/NC(N)=S)c(C)n1-c1ccc(Br)cc1`, the “hERG current change (%, negative = inhibition) at 1uM” value stood at 3.16%.

For the molecule `O=c1cc(CN2CCOCC2)c2c(ccc3ccccc32)o1`, the “hERG current change (%, negative = inhibition) at 1uM” value was -6.35%.

For `COCCOc1cc(NC(=O)CS(=O)(=O)CC(=O)N(C)C)c(Cl)cc1Cl`, the “hERG current change (%, negative = inhibition) at 1uM” value came out at 11.8%.
